These results are taken from the antibiotic and cytotoxicity screens of Wong et al. (2023).

This is one part of the list.

The test relates to S. aureus RN4220. As to the kind of experiment: growth inhibition call (relative growth <= 0.2). The note with it: 50 µM.
Consider `C[C@H](CO)N1C[C@H](C)[C@@H](CN(C)Cc2ccc(C(F)(F)F)cc2)OCCCC[C@H](C)Oc2ccc(N(C)C)cc2C1=O`, for which the growth inhibition call is “inactive”.

With `C[C@H]1CN([C@@H](C)CO)C(=O)Cc2cc(NS(=O)(=O)c3ccccc3)ccc2O[C@H]1CN(C)Cc1ccc(Oc2ccccc2)cc1`, the growth inhibition call is “inactive”.

For `COc1ccc(CN(C)C[C@@H]2OCCCC[C@H](C)Oc3ccc(NS(=O)(=O)c4ccccc4)cc3C(=O)N([C@@H](C)CO)C[C@H]2C)cc1`, the growth inhibition call was “inactive”. Under `CN1CCN(C(=O)C[C@H]2C[C@H]3c4cc(NC(=O)c5ccc6c(c5)OCO6)ccc4O[C@H]3[C@@H](CO)O2)CC1` stands “inactive”; under `C#C[C@@]1(O)[C@@H](CO)O[C@@H](n2ccc(N)nc2=O)[C@@H]1O`, “inactive”; under `C=C/C=C/[C@H]1C(=C)CN([C@H](Cc2ccc(-n3cc(CCC(=O)NO)nn3)cc2)C(=O)OC)[C@@H]1[C@H](O)Cc1ccccc1`, “inactive”. In the case of `C[C@@H]1CN([C@@H](C)CO)C(=O)Cc2cc(NC(=O)Nc3ccc4c(c3)OCO4)ccc2O[C@H]1CN(C)Cc1ccc(Oc2ccccc2)cc1` it was “inactive”. Under `C[C@H](CO)N1C[C@H](C)[C@@H](CN(C)Cc2ccncc2)OCCCC[C@H](C)Oc2ccc(NC(=O)Nc3cccc4ccccc34)cc2C1=O` stands “inactive”; under `CC1(C)[C@H](C(N)=O)CC[C@@]1(C)C(=O)O`, “inactive”; under `C[C@@H]1CN([C@H](C)CO)C(=O)c2cc(NC(=O)c3ccncc3)ccc2O[C@H]1CN(C)C(=O)Nc1ccc2c(c1)OCO2`, “inactive”.

With `CCCNC(=O)Nc1ccc2c(c1)OC[C@@H](C)N(C(=O)C1CCOCC1)C[C@H](C)[C@H](OC)CN(C)C2=O`, the growth inhibition call is “inactive”. On to `C[C@@H]1O[C@@H](O[C@@H]2[C@@H](O)[C@H](OCCc3ccc(O)c(O)c3)O[C@H](CO)[C@H]2OC(=O)/C=C/c2ccc(O)c(O)c2)[C@H](O)[C@H](O)[C@H]1O`, for which the growth inhibition call was “inactive”.

In the case of `Cc1ncc(CSSCc2cnc(C)c(O)c2CO)c(CO)c1O`, the growth inhibition call was “inactive”. Consider `NCCCn1ccnc1`, for which the growth inhibition call is “inactive”. In the case of `CC(=O)OCC(COC(C)=O)OC(C)=O` it was “inactive”; in that of `O=S(=O)(O)NC1CCCCC1`, “inactive”. As for `COc1ccc(NC(=O)Nc2ccc3c(c2)C(=O)N([C@H](C)CO)C[C@H](C)[C@H](CN(C)S(=O)(=O)c2ccc(F)cc2)OCCCC[C@@H](C)O3)cc1`, the growth inhibition call was “inactive”. As to `CC(C)NC(=O)N(C)C[C@@H]1Oc2ccc(NS(=O)(=O)c3ccc(Cl)cc3)cc2CC(=O)N([C@@H](C)CO)C[C@H]1C`, the growth inhibition call is “inactive”. Under `COc1cccc(NC(=O)N(C)C[C@@H]2Oc3ncc(C#Cc4ccncc4)cc3C(=O)N([C@H](C)CO)C[C@H]2C)c1` stands “inactive”. Under `COc1cccc(S(=O)(=O)N[C@@H]2CC[C@@H](CC(=O)NC3CCC3)O[C@@H]2CO)c1` stands “inactive”; under `CS(=O)(=O)N1[C@@H]2Cn3c(ccc(-c4cccc(F)c4)c3=O)[C@H]1[C@@H](C(=O)N1CCOCC1)[C@@H]2CO`, “inactive”. With `CO[C@H]1CN(C)C(=O)c2ccc(NS(=O)(=O)c3cn(C)cn3)cc2OC[C@H](C)N(CC2CC2)C[C@H]1C`, the growth inhibition call was “inactive”. In the case of `C[C@H]1CN([C@@H](C)CO)C(=O)CCCn2cc(nn2)CO[C@@H]1CN(C)C(=O)Nc1ccc2c(c1)OCCO2` it was “inactive”.

In the case of `COc1ccc(S(=O)(=O)Nc2cccc3c2O[C@H](CN(C)C(=O)Nc2cccc4ccccc24)[C@H](C)CN([C@H](C)CO)C3=O)cc1`, the growth inhibition call was “inactive”. On to `CCC(=O)Nc1ccc(C)c(C)c1`, for which the growth inhibition call was “inactive”. Under `C[C@@H]1CN([C@@H](C)CO)C(=O)c2cc(NC(=O)Cn3cnnn3)ccc2O[C@H]1CN(C)S(=O)(=O)c1cn(C)cn1` stands “inactive”; under `COc1ccc(NC(=O)N(C)C[C@H]2OCCCC[C@H](C)Oc3ccc(NS(=O)(=O)c4ccccc4)cc3C(=O)N([C@H](C)CO)C[C@@H]2C)cc1`, “inactive”; under `C[C@@H]1CN([C@@H](C)CO)C(=O)c2cc(NS(=O)(=O)c3cccs3)ccc2O[C@H]1CN(C)S(=O)(=O)c1ccc(F)cc1`, “inactive”. With `CO[C@H](C(=O)N(C)C[C@H]1OCc2ccccc2-c2c(n(C)c3ccccc23)C(=O)N([C@@H](C)CO)C[C@H]1C)c1ccccc1`, the growth inhibition call was “inactive”. In the case of `CCCCCCCCCCCCCCCC(=O)OCC=C(C)C=CC=C(C)C=CC1=C(C)CCCC1(C)C` it was “inactive”; in that of `COc1ccc(-c2ccccc2)cc1NC(=O)c1ccc2nc(C)c(N(C)C(=O)CCc3ccccc3)n2c1`, “inactive”. Take `CCOC(=O)C1=C(COCCN)NC(C)=C(C(=O)OC)C1c1ccccc1Cl.O=S(=O)(O)c1ccccc1` (stereo not given): the growth inhibition call was “inactive”.

Take `COc1ccc(COCC23Oc4ccccc4[C@H]([C@H]2CO[Si](C)(C)C(C)(C)C)n2c(c4ccccc4c(-c4ccccc4)c2=O)N3C)cc1`: the growth inhibition call was “inactive”. Under `Cc1noc(C)c1S(=O)(=O)Nc1ccc2c(c1)C(=O)N([C@H](C)CO)C[C@H](C)[C@@H](CN(C)S(=O)(=O)c1cn(C)cn1)OCCCC[C@@H](C)O2` stands “inactive”. In the case of `C=C1C(=O)O[C@@H]2[C@H]3C(=CO[C@@H]4O[C@H](CO)[C@@H](O)[C@H](O)[C@H]4O)CC(=O)C3=C(C)CC[C@@H]12` it was “inactive”; in that of `C[C@@H]1CCCCO[C@@H](CN(C)C(=O)CCCN(C)C)[C@H](C)CN([C@@H](C)CO)C(=O)c2cc(N(C)C)ccc2O1`, “inactive”; in that of `CN1CCN(C(=O)C[C@@H]2CC[C@@H]3[C@H](COC[C@@H](O)CN3C(=O)C3CC3)O2)CC1`, “inactive”. On to `CCOC(=O)C1CCN(C(=O)CNC(=O)Cc2n[nH]c(=O)c3ccccc23)CC1`, for which the growth inhibition call was “inactive”. As for `C[C@@H]1CN([C@@H](C)CO)C(=O)Cc2cc(NC(=O)C3CC3)ccc2O[C@@H]1CN(C)C(=O)NC1CCCCC1`, the growth inhibition call was “inactive”. In the case of `C[C@@H]1CCCCO[C@H](CN(C)Cc2ccc(C(F)(F)F)cc2)[C@@H](C)CN([C@H](C)CO)C(=O)c2cc(NC(=O)CCCCCC(=O)Nc3ccccc3N)ccc2O1` it was “inactive”.
